According to article PMC4336329 (PLoS ONE, 2015):
The campaign covered roughly 310,000 compounds. About 2,200 (0.71%) showed an effect of 50% or more. Effects have a minus sign here. This is one part of the list.

Molecular target: human ether-à-go-go-related gene (hERG) potassium channel (human, UniProt Q12809)
Assay: primary screen, population patch clamp on CHO cells stably expressing hERG

Chain of human ether-à-go-go-related gene (hERG) potassium channel (Q12809 whole entry, looked up): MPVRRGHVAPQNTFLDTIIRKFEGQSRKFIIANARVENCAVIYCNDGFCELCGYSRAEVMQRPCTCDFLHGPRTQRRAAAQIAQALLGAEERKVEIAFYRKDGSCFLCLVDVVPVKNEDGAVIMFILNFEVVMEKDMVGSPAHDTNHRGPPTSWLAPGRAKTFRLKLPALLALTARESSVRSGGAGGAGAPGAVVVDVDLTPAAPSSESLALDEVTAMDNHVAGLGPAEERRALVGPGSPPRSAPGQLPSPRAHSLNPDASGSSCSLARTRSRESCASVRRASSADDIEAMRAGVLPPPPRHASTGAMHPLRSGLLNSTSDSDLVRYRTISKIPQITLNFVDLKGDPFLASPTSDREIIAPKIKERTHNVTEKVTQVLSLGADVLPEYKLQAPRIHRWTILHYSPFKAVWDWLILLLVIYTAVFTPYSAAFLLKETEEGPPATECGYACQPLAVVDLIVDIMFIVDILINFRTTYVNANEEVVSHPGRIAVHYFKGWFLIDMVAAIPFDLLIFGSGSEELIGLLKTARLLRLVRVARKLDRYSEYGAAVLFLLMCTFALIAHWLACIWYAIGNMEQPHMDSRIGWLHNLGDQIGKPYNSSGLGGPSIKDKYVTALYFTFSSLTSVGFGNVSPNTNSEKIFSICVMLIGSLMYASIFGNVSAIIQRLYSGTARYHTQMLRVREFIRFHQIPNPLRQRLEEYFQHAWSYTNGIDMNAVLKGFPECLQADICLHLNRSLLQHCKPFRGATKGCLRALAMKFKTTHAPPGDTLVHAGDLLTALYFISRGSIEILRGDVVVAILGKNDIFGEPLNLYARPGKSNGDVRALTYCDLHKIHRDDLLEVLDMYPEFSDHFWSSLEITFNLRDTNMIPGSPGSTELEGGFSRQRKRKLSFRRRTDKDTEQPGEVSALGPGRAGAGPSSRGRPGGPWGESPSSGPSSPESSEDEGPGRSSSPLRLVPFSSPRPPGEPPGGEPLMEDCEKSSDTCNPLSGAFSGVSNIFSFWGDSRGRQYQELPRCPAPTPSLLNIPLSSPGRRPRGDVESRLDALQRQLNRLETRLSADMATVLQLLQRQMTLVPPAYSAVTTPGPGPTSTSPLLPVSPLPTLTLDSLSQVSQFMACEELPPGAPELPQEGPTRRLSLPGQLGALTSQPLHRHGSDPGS

Row | SMILES | hERG current change (%, negative = inhibition) at 1uM [%]
1 | Cn1c(CCNC(=O)c2ccco2)nc2cc(NC(=O)c3ccco3)ccc21 | 0.0013
2 | O=C(O)/C=C\C(=O)NC1CCCCC1 | 3.36
3 | Cc1ccc(-c2nnc(SCC(=O)N3CC(C)CC(C)C3)o2)cc1C (stereo not drawn) | 9.36
4 | Cc1ccccc1C(=O)NC=C1C(=O)OC(C)(C)OC1=O | 18.2
5 | Cc1nn(Cc2ccccc2Cl)c(C)c1NC(=O)c1noc2c1CCCCC2 | 10.4
6 | Cc1ccc(S(=O)(=O)Nc2ccc3ccccc3n2)cc1 | 8.34
7 | c1ccc2sc(NN=C3CCCCCC3)nc2c1 | 5.55
8 | COc1ccc(-c2cc3ccccc3n2CC(O)CN2CCCCC2)cc1.O=C(O)C(=O)O (stereo not drawn) | -74.6
9 | COc1ccc(NC(=O)NC2CCCc3ccccc32)cc1 (stereo not drawn) | 11.7
10 | CCCN(CCC)C(=O)c1ccc2c(c1)N(CC)C(=O)c1ccccc1S2(=O)=O | 4.78
11 | CCOC(=O)N1CCN(c2c(N3CCc4ccccc43)c(=O)c2=O)CC1 | -5.54
12 | COc1cccc(-c2ccc(=O)n(CC(=O)Nc3ccc(S(=O)(=O)NCC(C)C)cc3)n2)c1 | 8.68
13 | CCOC(=O)C1(C(F)(F)F)N=C(N(C)C)OC(N(C)C)=N1 | 8.44
14 | Cl.O.Oc1cc2c(cc1O)[C@H]1c3ccccc3CN[C@@H]1CC2 | 6.84
15 | Nc1nnnn1/N=C/c1cccc(OCc2ccccc2Cl)c1 | 17.3
16 | Cl.c1ccc(CNc2ncnc3ccccc23)cc1 | 18
17 | NC(=O)Nc1ccc(C(=O)OCC(=O)N2CCCC2=O)cc1 | 10.7
18 | O=C(NCCc1cnc[nH]1)c1cccs1 | 15.6
19 | CN(CC(=O)Nc1ccccc1C(=O)NC1CC1)Cc1ccco1 | 8.24
20 | COc1ccc(C(=O)C[n+]2cccc(C(N)=O)c2)cc1.[Br-] | 10.9
21 | O=C(NC1CCCC1)c1ccccc1OCc1ccccc1 | 9.23
22 | COc1ccccc1-n1ccn(CC(=O)Nc2ccc(C)cc2Cl)c(=O)c1=O | -5.48
23 | CCOc1ccc(OCCC(=O)OCC(=O)NCc2ccc(Cl)cc2)cc1 | 17.5

Row | SMILES | hERG current change (%, negative = inhibition) at 1uM [%]
24 | COc1ccc(CNCc2cccc(OC)c2OC)cc1Br.O=C(O)C(=O)O | -1.64
25 | CC(C)N(Cc1nc(-c2ccccc2)no1)C(=O)CN(C)S(=O)(=O)c1ccccc1 | 9.61
26 | COc1ccc(NC(=O)c2cc3cc(OC)ccc3oc2=O)cc1 | 9.27
27 | CC(C)C(=O)Nc1ccccc1-c1nc2ccccc2[nH]c1=O | 6.03
28 | O=C(NCc1ccc(F)cc1)C1CCC(CNS(=O)(=O)c2ccccc2)CC1 (stereo not drawn) | 11.4
29 | CCc1ccc(Nc2ncnc3nc[nH]c23)cc1 | -4.02
30 | CCCN(CCC)C(=O)Nc1ccc(F)cc1F | 16.7
31 | O=C(Nn1c(-c2ccc(Br)cc2)nc2ccccc2c1=O)c1cccnc1 | 13.9
32 | CN1CCC(NC(=O)c2ccncc2)CC1 | 4.86
33 | C1=CC2CC1CC2CNCc1ccco1.Cl (stereo not drawn) | 3.17
34 | COC(=O)c1ccccc1NC(=O)CSc1nnc(-c2cccnc2)o1 | -3.81
35 | O=S(Cc1ccccc1)CC(O)(c1ccccc1)c1ccccc1 (stereo not drawn) | -0.0528
36 | COC(=O)c1ccccc1NC(=O)CN(C)S(=O)(=O)c1cc(C)ccc1OC | 9.94
37 | Nc1ccccc1-c1nnc2n1CCCCC2 | 16.7
38 | CC1=NN(c2ccc(C)cc2C)C(=O)C1C(c1ccccc1)C1C(=O)N(c2ccc(C)cc2C)N=C1C (stereo not drawn) | -0.731
39 | CCOC(=O)c1cc(-c2ccc(C)cc2)n(CCC(=O)N2CCN(c3ccccn3)CC2)c1C | -17
40 | Cc1cc(C(F)(F)F)nn1CC(=O)NCC1CCCO1 (stereo not drawn) | 7.49
41 | O=C(O)c1cccc(CSc2nnc(Cc3ccccc3)o2)c1 | 1.01
42 | NNC(=O)c1oc2nc(-c3cccs3)cc(-c3ccco3)c2c1N | 14.1
43 | CC(C)(C)c1ccc(NC(=O)CC2(C(F)(F)F)OCCO2)cc1 | 6.77
44 | CCOc1ccc(S(=O)(=O)N2CCCC(C(=O)N3CCN(CC)CC3)C2)cc1Cl (stereo not drawn) | 13.4
45 | O=C(CN1CCCCC1)NNC(=O)c1cccc(Br)c1 | 14.5
46 | Cc1ccccc1OCC(=O)NCCS(=O)(=O)N1CCN(c2ccc(F)cc2)CC1 | -11.7

Row | SMILES | hERG current change (%, negative = inhibition) at 1uM [%]
47 | CC1CN(C(=O)/C=C/c2ccccc2Cl)CC(C)O1 (stereo not drawn) | 18.6
48 | COC(=O)c1nn(-c2ccccc2)c(Sc2ccc(Cl)cc2)c1/C=N/O | 4.74
49 | Cc1cc(C)n(CCC(=O)N2CCN(S(=O)(=O)c3ccc(C)c(C)c3)CC2)n1 | 8.96
50 | Cc1ccc(C(=O)NC(=S)Nc2cccc3nsnc23)cc1 | 7.03
51 | COC(=O)c1[nH]c2ccc(Br)cc2c1NC(=O)CN1CCN(C2CCCCC2)CC1 | -85.1
52 | O=C(NCc1ccc2c(c1)OCO2)C1CCCN1S(=O)(=O)c1ccc(Cl)cc1 (stereo not drawn) | -38.7
53 | O=C(c1ccc(SCc2ccco2)c([N+](=O)[O-])c1)N1CCOCC1 | 8.52
54 | COc1ccc(CC(=O)Nc2cc(C)ccc2O)cc1OC | 13.9
55 | O=C(OCCOc1ccc(Br)cc1)c1ccc(Cl)c(S(=O)(=O)N2CCOCC2)c1 | 4.88
56 | O=C(NC1CC2CCCC(C1)N2CC(=O)N1CCCc2ccccc21)C1CCCCC1 (stereo not drawn) | -23.3
57 | COC(=O)c1ccc(/C=C/C(=O)c2ccc(OC)cc2)cc1 | 11.3
58 | CCN(CC(=O)NCc1ccc(Cl)cc1)C(=O)c1ccc2cc(OC)ccc2c1 | 7.72
59 | COc1ccc(Cc2nnc(N/N=C/c3ccc(Br)cc3)[nH]c2=O)cc1OC | 13.9
60 | Cn1c(=O)c2cc(S(=O)(=O)NCCC(=O)Nc3ccc(Cl)cc3)ccc2n(C)c1=O | -5.38
61 | CCOCCCN(C(=O)Nc1ccc(CC)cc1)C1CCN(C(C)=O)CC1 | -5.87
62 | O=C(Cc1coc2cc3c(cc12)CCC3)NC1CCCCCCC1 | 0.112
63 | CCCCn1c(=O)c(C(=O)Nc2ccccn2)c(O)c2ccccc21 | 6.62
64 | CCC(=O)N(CCc1ccccc1)Cc1cc2cc(OC)ccc2[nH]c1=O | -3.89
65 | CCN(CC)S(=O)(=O)c1cc(NC(=O)COC(=O)C2CCC2)ccc1C | 8.13
66 | Cc1cc(OC(=O)c2ccccc2[N+](=O)[O-])c([N+](=O)[O-])c(=O)[nH]1 | 10
67 | CC(C(=O)OCC(=O)N1CCN(c2ccccc2)CC1)N1C(=O)c2ccccc2C1=O (stereo not drawn) | 15.1
68 | O=C(Nc1ccc(Cl)cn1)Nc1cccs1 | -1.12
69 | CCCNC(=O)c1ccc(Cl)c(Cl)c1 | 4.26

Row | SMILES | hERG current change (%, negative = inhibition) at 1uM [%]
70 | Cc1cccc(C)c1Oc1nc(-c2ccccc2)ncc1S(=O)(=O)c1ccccc1 | 8.29
71 | CC(=O)Oc1ccc2c(=O)c(Oc3ccccc3[N+](=O)[O-])coc2c1 | 11.7
72 | c1ccc(Oc2ccc3ccccc3n2)cc1 | -2.37
73 | COc1ccc(-c2csc(/N=C/N(C)C)n2)cc1OC | -0.928
74 | COc1ccc(-n2nc3c(c2NC(=O)c2ccc(S(=O)(=O)N4CCOCC4)cc2)CS(=O)C3)cc1 (stereo not drawn) | 6.33
75 | COc1ccc(CSc2nc(C)cc(C)c2C#N)cc1 | 19.6
76 | Cc1cccc(C(CC(=O)N2CCCCC2)c2ccccc2)c1O (stereo not drawn) | 6.38
77 | COc1ccc(C(OC(=O)c2ccco2)C(=O)NC(C)(C)C)cc1 (stereo not drawn) | 18.2
78 | O=c1[nH]c2cc(C(F)(F)F)ccc2n1-c1cc(C(F)(F)F)ccc1O | 8.01
79 | CC(C)N(CCc1ccncc1)C(=S)Nc1cccc(Cl)c1 | -23.2
80 | CN(c1ccccc1)S(=O)(=O)c1cccc(C(=O)OCC(=O)Nc2ccc3[nH]c(=O)[nH]c3c2)c1 | 21.1
81 | COc1ccc(OCCCC(=O)NC(C)c2ccccc2)cc1 (stereo not drawn) | 8.81
82 | O=C(COC(=O)CCN1C(=O)C2CC=CCC2C1=O)Nc1ccc(Cl)cc1F (stereo not drawn) | -2.89
83 | COCCNc1nc2sc3c(c2c(=O)n1Cc1ccco1)CCCCC3 | 15.7
84 | CC(C)c1ccc(NC(=S)NC2CCN(Cc3ccccc3)CC2)cc1 | 5.77
85 | CCCn1c(C2CC(=O)N(c3ccc(C)cc3)C2)nc2ccccc21 (stereo not drawn) | -4.12
86 | Cc1cc(C(=O)COC(=O)c2ccc(O)cc2)c(C)n1-c1ccccc1F | 13.2
87 | O=C(Oc1ccc([N+](=O)[O-])cc1)c1ccc(Cl)c(S(=O)(=O)N2CCCCC2)c1 | 14.5
88 | Cc1n[nH]c(C)c1N1C(=O)c2cccc3cc(Br)cc(c23)C1=O | 14.7
89 | CC(C)NNC(=O)c1ccncc1.O=P(O)(O)O | 21.7
90 | Br.CC(C)(C)C(=O)CN1C2=NCCCN2c2ccccc21 | -46.9
